The text below walks through data of the supplement of paper PMC9446081.

Among all 39,000 compounds or so, about 220 (0.56%) showed activity. The list shows a part of the results.
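Also: static incubation at 37 °C against the wild-type strain, values averaged over two biological replicates.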

The test relates to Escherichia coli K-12 BW25113. Briefly: relative growth (OD600 normalised to plate interquartile mean) (fraction); higher = less growth inhibition, active = 0.2 or less. The note with it: 50 µM; LB; incubation time: overnight (16-24 h).
In the case of `COc1ccc(NC(=O)Nc2ccc3c(c2)C(=O)N([C@@H](C)CO)C[C@@H](C)[C@H](CN(C)Cc2ccc(C(F)(F)F)cc2)OCCCC[C@@H](C)O3)cc1`, the relative growth was inactive: 0.97. As for `Cc1noc(C)c1S(=O)(=O)Nc1ccc2c(c1)C(=O)N([C@H](C)CO)C[C@H](C)[C@@H](CN(C)Cc1ccccc1)O2`, the figure is inactive: 1.

As to `COc1ccc(NC(=O)N(C)C[C@@H]2OCCCC[C@H](C)Oc3ccc(NS(=O)(=O)c4ccc(F)cc4)cc3C(=O)N([C@H](C)CO)C[C@@H]2C)cc1`, the relative growth is inactive: 1.01. In the case of `C[C@H]1CN([C@@H](C)CO)C(=O)Cc2cc(NS(=O)(=O)c3ccc(Cl)cc3)ccc2O[C@H]1CN(C)C(=O)Nc1ccc(C(F)(F)F)cc1` it was inactive: 1.01; in that of `COc1ccc(S(=O)(=O)N(C)C[C@H]2OCCCC[C@@H](C)Oc3ccc(NC(=O)Nc4ccc(F)cc4)cc3C(=O)N([C@@H](C)CO)C[C@H]2C)cc1`, inactive: 1.01.

As to `C[C@@H]1CN([C@H](C)CO)C(=O)c2cc(NC(=O)Nc3cccc4ccccc34)ccc2O[C@@H]1CN(C)S(=O)(=O)c1ccccc1`, the relative growth is inactive: 1.05. As for `C[C@@H]1CN([C@@H](C)CO)C(=O)c2cc(NS(=O)(=O)c3ccc(F)cc3)ccc2O[C@@H](C)CCCCO[C@@H]1CN(C)C(=O)CCC(F)(F)F`, the figure is inactive: 1.

As to `Cc1ccc(S(=O)(=O)N(C)C[C@H]2OCCCC[C@@H](C)Oc3ccc(NC(=O)c4ccccc4)cc3C(=O)N([C@H](C)CO)C[C@@H]2C)cc1`, the relative growth was inactive: 1.01. Consider `COc1ccc(NC(=O)Nc2cccc3c2O[C@H](CN(C)Cc2ccc(Cl)c(Cl)c2)[C@H](C)CN([C@@H](C)CO)C3=O)cc1`, for which the relative growth is inactive: 1. In the case of `C[C@H]1CN([C@@H](C)CO)C(=O)c2cccc(NC(=O)c3ccc(-c4nccs4)cc3)c2O[C@@H]1CN(C)C(=O)Nc1cccc2ccccc12` it was inactive: 1.01; in that of `O=C(O)[C@H](O)c1ccc(F)cc1`, inactive: 1.02. With `C=C1SC(Nc2c(C)cccc2C)=NC12CCCCC2`, the relative growth was inactive: 0.974.

Regarding `Cc1cc(C)n(CCNC(=O)[C@H]2CCCN(c3cccc4c3C(=O)N(Cc3ccc5c(c3)OCO5)C4=O)C2)n1`, the relative growth is inactive: 0.993. In the case of `CC(C)NC(=O)NCC[C@H]1CC[C@H](NC(=O)CN(C)C)[C@@H](CO)O1` it was inactive: 1.05; in that of `Cc1noc(C)c1S(=O)(=O)Nc1ccc2c(c1)CC(=O)N([C@H](C)CO)C[C@H](C)[C@H](CN(C)S(=O)(=O)c1cn(C)cn1)O2`, inactive: 1.02; in that of `CO[C@H](C(=O)N(C)C[C@@H]1OCc2ccccc2-c2c(n(C)c3ccccc23)C(=O)N([C@H](C)CO)C[C@H]1C)c1ccccc1`, inactive: 1. Consider `C[C@@H]1CN([C@@H](C)CO)C(=O)c2cc(NC(=O)Nc3ccccc3)ccc2O[C@@H](C)CCCCO[C@H]1CN(C)S(=O)(=O)c1cccc(F)c1`, for which the relative growth is inactive: 0.999. In the case of `C[C@@H]1CCCCO[C@@H](CN(C)S(=O)(=O)c2ccc(F)cc2)[C@H](C)CN([C@@H](C)CO)C(=O)c2cc(NC(=O)CCC(F)(F)F)ccc2O1` it was inactive: 0.991; in that of `CC(=O)NCCCC[C@@H]1NC(=O)[C@H]2C[C@@H](C(=O)NCCCCCCN(C)C)[C@@H](c3cccc(OCCO)c3)N2C1=O`, inactive: 0.955; in that of `CC(C)C#Cc1ccc2c(c1)O[C@@H](CN(C)C(=O)c1cccc(F)c1)[C@H](C)CN([C@H](C)CO)S2(=O)=O`, inactive: 1.03. As for `O=c1c2cccnc2ccn1C[C@H]1COCCO1`, the figure is inactive: 0.994; as for `COC(=O)c1c2oc(c1C(=O)OC)C(=O)N[C@H](Cc1ccccc1)Cn1cc(nn1)[C@H](Cc1ccccc1)NC(=O)N[C@@H](COC(=O)NCCCCCC(=O)NO)CC2`, inactive: 1.02. As for `Cc1noc(C)c1S(=O)(=O)N(C)C[C@H]1Oc2c(NC(=O)NC3CCCCC3)cccc2C(=O)N([C@H](C)CO)C[C@@H]1C`, the figure is inactive: 1; as for `COc1ccc(NC(=O)N(C)C[C@@H]2OCCCC[C@H](C)Oc3ccc(NC(=O)Nc4ccc(C(F)(F)F)cc4)cc3C(=O)N([C@@H](C)CO)C[C@@H]2C)cc1`, inactive: 1.04.

As to `COCC(=O)Nc1ccc2c(c1)OC[C@H](C)N(C(=O)Cc1cccnc1)C[C@@H](C)[C@@H](OC)CN(C)C2=O`, the relative growth was inactive: 1.04. As for `CCNC(=O)c1sc(C)nc1N`, the figure is inactive: 1.03; as for `Cc1cnc(C(=O)O)c[n+]1[O-]`, inactive: 0.996.

On to `Cc1ccc(-c2ccc3c(c2)O[C@@H](CN(C)Cc2cncnc2)[C@@H](C)CN([C@@H](C)CO)S3(=O)=O)cc1`, for which the relative growth is inactive: 1.01.

Turning to `C[C@@H]1CN([C@@H](C)CO)C(=O)c2cccc(NC(=O)CCCCCC(=O)Nc3ccccc3N)c2O[C@@H]1CN(C)S(C)(=O)=O`, the relative growth is inactive: 0.992.

As to `C[C@H]1CN([C@@H](C)CO)C(=O)c2cccc(NC(=O)c3nc4ccccc4s3)c2O[C@@H]1CN(C)CC1CCCCC1`, the relative growth was inactive: 0.984.

Take `C[C@H]1CN([C@@H](C)CO)C(=O)CCCn2nncc2CO[C@@H]1CN(C)Cc1ccc2c(c1)OCCN2C`: the relative growth is inactive: 1.04. As for `CC(=O)Nc1cccc(O)c1`, the figure is inactive: 1.08; as for `O=c1oc2cc3occ(-c4ccccc4)c3cc2c2ccccc12`, inactive: 0.907; as for `CN(C)CCCNC(=O)C[C@@H]1CC[C@@H]2[C@@H](COc3ccc(NC(=O)c4cccc(F)c4)cc3C(=O)N2C)O1`, inactive: 0.965.

With `Cn1cnc(S(=O)(=O)N2C[C@H](O)COC[C@@H]3O[C@@H](CC(=O)NC4CCCC4)CC[C@H]32)c1`, the relative growth is inactive: 0.992. As to `CCS(=O)(=O)NCC[C@@H]1CC[C@@H](NC(=O)Cc2ccccn2)[C@@H](CO)O1`, the relative growth was inactive: 0.996. As for `O=C(Nc1cccc(C(F)(F)F)c1)c1ccc2ccccc2c1`, the figure is inactive: 0.997.

In the case of `COc1ccc(OCCC(=O)NN)cc1`, the relative growth was inactive: 1.02. In the case of `Cc1noc(C)c1NC(=O)Nc1ccc2c(c1)C(=O)N([C@H](C)CO)C[C@H](C)[C@H](CN(C)Cc1ccc(C(=O)Nc3ccccc3N)cc1)OCCCC[C@@H](C)O2` it was inactive: 1; in that of `Cc1noc(C)c1S(=O)(=O)N(C)C[C@@H]1Oc2c(NC(=O)C3CCOCC3)cccc2C(=O)N([C@@H](C)CO)C[C@@H]1C`, inactive: 0.989. On to `O=C(Nc1cccc2cccnc12)[C@@H]1[C@H](c2ccc3ccccc3c2)CC(=O)N1C(=O)OCc1ccccc1`, for which the relative growth was inactive: 1.03. In the case of `CCOC(=O)c1c[nH]c(=S)[nH]c1=O`, the relative growth is inactive: 0.984. In the case of `Cc1noc(C)c1S(=O)(=O)N(C)C[C@@H]1Oc2ccc(N(C)C)cc2CC(=O)N([C@H](C)CO)C[C@@H]1C` it was inactive: 0.973. As for `O=c1c(O)c(-c2ccc(O)c(O)c2)oc2cc(O)cc(O)c12`, the figure is inactive: 0.937; as for `C[C@H]1CN([C@@H](C)CO)C(=O)c2cc(NC(=O)Nc3ccc(C(F)(F)F)cc3)ccc2O[C@@H]1CN(C)S(=O)(=O)c1ccc(F)cc1`, inactive: 1.02; as for `C[C@H](CO)N1C[C@H](C)[C@@H](CN(C)C(=O)Cc2ccncc2)Oc2cc(-c3cncnc3)ccc2S1(=O)=O`, inactive: 1.01. As for `C[C@@H]1CN([C@H](C)CO)C(=O)Cc2cc(NS(=O)(=O)c3ccc(F)cc3)ccc2O[C@H]1CN(C)S(=O)(=O)c1cn(C)cn1`, the figure is inactive: 0.991; as for `C[C@H]1CN([C@@H](C)CO)C(=O)Cc2cc(NC(=O)Cc3cn(C)c4ccccc34)ccc2O[C@H]1CN(C)Cc1ccc(Cl)c(Cl)c1`, inactive: 1. Turning to `C[C@@H]1CCCCO[C@@H](CN(C)C(=O)Nc2ccccc2)[C@@H](C)CN([C@H](C)CO)C(=O)c2cc(NC(=O)c3ccncc3)ccc2O1`, the relative growth was inactive: 1.03. With `C[C@H](CO)N1C[C@H](C)[C@H](CN(C)S(=O)(=O)c2ccc(Cl)cc2)OCCCC[C@H](C)Oc2ccc(NS(=O)(=O)c3ccc(Cl)cc3)cc2C1=O`, the relative growth is inactive: 1.03. As for `Cn1cnc(S(=O)(=O)N2C[C@H](O)COC[C@H]3O[C@@H](CC(=O)N4CCN(c5ccccc5)CC4)CC[C@@H]32)c1`, the figure is inactive: 1.01; as for `Cc1ccc(S(=O)(=O)Nc2ccc3c(c2)C(=O)N([C@H](C)CO)C[C@@H](C)[C@H](CN(C)Cc2ccccc2)OCCCC[C@H](C)O3)cc1`, inactive: 1.04. As for `OC[C@@H](O)[C@@H](O[C@@H]1O[C@H](CO)[C@H](O)[C@H](O)[C@H]1O)[C@H](O)[C@@H](O)CO`, the figure is inactive: 0.984. As for `C[C@@H]1CN([C@@H](C)CO)C(=O)c2cc(NC(=O)Nc3ccc(F)cc3)ccc2O[C@@H](C)CCCCO[C@@H]1CN(C)Cc1ccc(C(=O)O)cc1`, the figure is inactive: 0.88. On to `COc1ccc(CCNS(=O)(=O)c2cn(C)c(=O)n(C)c2=O)cc1`, for which the relative growth was inactive: 0.979.

With `C[C@@H]1CN([C@@H](C)CO)C(=O)c2cc(NS(=O)(=O)c3ccc(Cl)cc3)ccc2O[C@@H](C)CCCCO[C@@H]1CN(C)CC1CCCCC1`, the relative growth was inactive: 0.988.

As for `C[C@@H]1CN([C@H](C)CO)C(=O)c2cccc(NS(C)(=O)=O)c2O[C@H]1CN(C)C(=O)Nc1ccccc1`, the relative growth is inactive: 0.985. In the case of `C[C@H](CO)N1C[C@H](C)[C@H](CN(C)Cc2ccc(C(=O)Nc3ccccc3N)cc2)Oc2ccc(NC(=O)Nc3cccc4ccccc34)cc2C1=O` it was inactive: 1.01; in that of `CCCC#Cc1cnc2c(c1)C(=O)N([C@@H](C)CO)C[C@H](C)[C@H](CN(C)C(=O)c1ccc3c(c1)OCO3)O2`, inactive: 1.02; in that of `COc1ccc(COC[C@]23N=C4SCc5ccccc5CN4[C@H](c4ccccc4O2)[C@H]3CO[Si](C)(C)C(C)(C)C)cc1`, inactive: 1.02.

As to `COc1ccc(-c2ccc3c(c2)O[C@H](CN(C)CC2CCOCC2)[C@@H](C)CN([C@@H](C)CO)S3(=O)=O)cc1`, the relative growth was inactive: 1.05.
